Data published in the supplement of paper PMC11417369.
The list shows a part of the results.

tested on: PfSIP2 AP2 domain 1 (GST-tagged); assay: gcPBM binding intensity (ln(normalized median fluorescence intensity)); higher = stronger DNA binding
Procedure, shortened: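 Alexa488 anti-GST antibody, scanned at 488 nm, detected GST-tagged P. falciparum DNA-binding domains that had been expressed in E. coli and incubated for 1 h on an Agilent 4 × 180k array. The array carried primer-extended double-stranded 36-bp intergenic genomic probes and negative controls. Binding intensity is the highest Masliner-normalised natural-log median intensity across replicate spots of either orientation of each probe.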

| Sequence | gcPBM binding intensity (ln) |
| --- | --- |
| TTTTCTTAATATTTCGTTTTACATAAACCTTTTAAA [CACACA_negctrl_site660] | 7.06 |
| AATATAATATTATATAGTACATATTTCTTTTATTTT [XGTACX_site22] | 6.82 |
| TTTTACATCATATATAGTACATATATTATACATATA [XGTACX_site8590] | 7.03 |
| TATATATATATAAGTAGTACAATAATATATTATTTT [XGTACX_site6450] | 8.88 |
| ATATATTTTCATTTTACACACAAATAAAGATAATTT [CACACA_site2996] | 7.27 |
| AAAATAAATAAAAAAAGTACATATATAATTTATAAA [XGTACX_site2411] | 7.01 |
| TCTTGATACAAACATTTAAATAAATAAATAAAAAAA [GTGCAC_negctrl_site41] | 7.1 |
| AAAATACACGCATACACACACACACCGACACATATA [CACACA_site4523] | 7.19 |
| TGTTGTGATATATTAAAATCGTCCCTTATAATTTTA [GTGCAC_negctrl_site595] | 6.79 |
| TAATATTATATTTATAGTACATATAATATATATATA [XGTACX_site2964] | 8.62 |
| GAACACTAATAATGTTGTACACGTAATTATATATTT [XGTACX_site777] | 7.13 |
| AAACACACACACAAATGTACATATATATATATATTT [XGTACX_site5090] | 7.45 |
| TATAATATATGTATATGTACTTATGTTGAGAAACAT [XGTACX_site2117] | 6.95 |
| TACCTAATATGTTATACACACATTATGAGTACATAT [CACACA_site2466] | 7.08 |
| GAATAATATATATGTTCACACATGGTCTTTATTATA [CACACA_site5457] | 6.91 |
| GTTATATAAACATATGCATGTGAAGTGTTTATTAAT [TGCATGCA_site183] | 6.9 |
| TATATATATATAATTGCACACATCAAGTTTGATGTT [CACACA_site1288] | 8.97 |
| GTTGTATACAATAATGTGCACATATTAATTTGAACT | 8.78 |
| AAATGTACAGGACGCACACACATATTTATATTTATA [CACACA_site7689] | 7.12 |
| TTTTTTTTTCCTTTTTTTTAAATATTAAAAATGGGA [TGCATGCA_negctrl_site494] | 6.91 |
| CTTATTTACTATTTTTCACACATTACAGATAAACAA [CACACA_site6095] | 7.33 |
| TAAGTTTTGTTTTTTTGTACTCATTCATACTATCAT [XGTACX_site3638] | 7.2 |

| Sequence | gcPBM binding intensity (ln) |
| --- | --- |
| TAAATATATATATATAGTACAATATAATTATGATAT [XGTACX_site258] | 7.24 |
| TCATTGAAAAAAATCTGTACTGACTATATAGTTGCA [XGTACX_site1566] | 6.76 |
| GCTTAATACAGAATAACACACAAAATAAATAAATAA [CACACA_site4041] | 7.06 |
| TTTTTTTTTTTTTTTGCACACTTAAATTTGGTGGCT [CACACA_site5319] | 7.56 |
| CATATAATAAATAATTGTACTTGATATAATATTATG [XGTACX_site3562] | 6.91 |
| TTGGCTATAGCCAATTGTACTTTTTCTCTTTGGCTT [XGTACX_site1119] | 7.07 |
| GACATATATACCAAACGTACATATGTGCAAGCATAA [XGTACX_site3089] | 7.21 |
| TCTTGATTAACTTAAAAAAAAAAAAAAAAAAAAAAA [CACACA_negctrl_site458] | 6.89 |
| TATATTTGTGCGTGTACACATTTGAAAAAATATATA [CACACA_site5079] | 7.6 |
| ATAAATTATAATAACTGTACAAAAATAATATATTCA [XGTACX_site1856] | 6.93 |
| AATAATAATAAAAAGGTGCTGAAATATTTTTATTAT [GTGCAC_site9763] | 8.38 |
| TATATAATTATTTTTTGTACTCATAATAATATGAAA [XGTACX_site289] | 7.23 |
| ATATGTACAAAATAAGCACACACAAAAAAAAAAAAA [CACACA_site8984] | 7.2 |
| AAAAAAAAAAAAAATATATATATATATATATATATA [CACACA_negctrl_site540] | 9.76 |
| TTTTTTTTTTTTTTTTGTACATAAATTTTTATTAGA [XGTACX_site6409] | 6.96 |
| TATGAGAAAAAAAGTACATGCACAAAATGTATATGT [TGCATGCA_site789] | 7.3 |
| CAACATTGTTCCTATTGTACATGAACTGTTCATACG [XGTACX_site4070] | 6.77 |
| ATTATATAAACCAAATGTACAAAAAGGTCGTAGTGG [XGTACX_site1298] | 7.19 |
| ATTATTAAGGTTTATTCAAAAAAGACGTTTTTAAAT [CACACA_negctrl_site1059] | 6.75 |
| AGACACGTATACGATGCACACGTATGCTTTATATAT [CACACA_site9363] | 7.73 |
| TATAATGATGATGATAGTACGTATGAGTAAGAAAAA [XGTACX_site31] | 7.37 |
| ATAAAAATATTTATTACACACATAAGCAAAAAAAAA [CACACA_site3484] | 6.93 |

| Sequence | gcPBM binding intensity (ln) |
| --- | --- |
| TATTTTTATTTTTAAACCATATATATATATATATAT [CACACA_negctrl_site1560] | 9.44 |
| TATAGTTTCATTCTTTGTACATATATATTATTATTA [XGTACX_site8527] | 7.17 |
| AATGTGCAAACAAACTGTACTTTTTTTTTTTTTTTT [XGTACX_site928] | 7.84 |
| AGATTTATTCATTCATGTACTTATTTATTTTATTTT [XGTACX_site6702] | 7.02 |
| AATAATAATGCTTTAACTTTGTTGTTATTTAGAATA [CACACA_negctrl_site1144] | 6.6 |
| TATAAATAAAAGTGTACACACATTAAAATCAAACGT [CACACA_site5316] | 7.19 |
| CATACATATATACATACACACACATATAACCAATGT [CACACA_site8679] | 7.28 |
| TTTGTATTACGTTTGTGTACATATACAATGTGTTTT [XGTACX_site7708] | 7.03 |
| TCCATGCATTGACACACACACAAAAAAAAATTCTTT [CACACA_site7847] | 7.15 |
| TTTATTTATTTATGGACACACATACAAATCTTCCAG [CACACA_site4676] | 7.03 |
| AAACGTGTGTATAATAGTACATAATTATAACGTAAT [XGTACX_site421] | 6.99 |
| CGTATTTTTGGACATGCATGTACAAATAATCTTATG [TGCATGCA_site973] | 7.32 |
| AAATTTGGCAAACACACACACACACCCACAGAGACA [CACACA_site4490] | 7.28 |
| ATATATGGAGCTTATACACACTTTTATATTTTAACA [CACACA_site7757] | 6.99 |
| TTGGGCATAATGTCATGTACACAAATAATTCTTTAT [XGTACX_site861] | 7 |
| TAAGTTTTGTTCTTTTGTACATATAAGTATAGATCG [XGTACX_site4735] | 6.9 |
| AATGTTTTTGTGAGATGTATAAATTTTATTTTATTT [XGTACX_negctrl_site413] | 6.97 |
| AAAAAAATAATGTACACACACATATAGGTTTATATA [CACACA_site192] | 6.96 |
| TTATAATAAATATTCATATGTTCAAATATATATATA [CACACA_negctrl_site624] | 8.87 |
| TTTATTTATTATTATGTACACACTATATTAAAACAT [CACACA_site700] | 7.23 |
| TATAGATTTATATACACATGCATTTTGGTAAAGAAA [TGCATGCA_site953] | 7.09 |
| AAATATATTTCTTTTTTTCTTATTATTAATTTGCTT [CACACA_negctrl_site1483] | 6.75 |

| Sequence | gcPBM binding intensity (ln) |
| --- | --- |
| ATTGTAAGTAGACACACACACATATAGATGTATATA [CACACA_site6463] | 7.16 |
| TATTTTTTTAATAACTGTACTTTTTTGTCAAATGGA [XGTACX_site4179] | 7.14 |
| TTAAAATTATAATACGTACACACCTTATCTTTTTGG [CACACA_site278] | 7.28 |
| GGCGTATGTGTATATACACACCCACGTATATATATA [CACACA_site9046] | 8.1 |
| TGTTGTTTTATGTTGTATTGTAATATATTATATTAT [XGTACX_negctrl_site46] | 7.48 |
| ATATATAACGGGCACACACACATTTACGTATGAATA [CACACA_site1833] | 7.39 |
| TTAGGATTGAAGAGTTGTACATACCTCTTATTTGTT [XGTACX_site1376] | 6.89 |
| ATCATATATTATTTATGTACTTATTTATAATAATAT [XGTACX_site8257] | 7.06 |
| TATAAAATGTAATCTGAACACACATATTTTTTTAAT [CACACA_site8521] | 6.72 |
| GGAAAATATGTTTGTGTGCACAGCTAGCTATTTGTA [GTGCAC_site9637] | 8.41 |
| CACCCACACCAACACACACACATATATATATATATA [CACACA_site362] | 9.74 |
| AAATAAATTGATTCAACACACACATATGTAGGAAGT [CACACA_site9068] | 7.09 |
| TTTTTTTTTTTCAAGCGTACAAAAAATATATTTAAA [XGTACX_site5327] | 7.11 |
| AATTTTTTTTGTCTCTGTACTTATAAAATATATATG [XGTACX_site4742] | 6.96 |
| AAAAAAAATTTTAATTGTACAAAAAAAAAAAATATA [XGTACX_site2259] | 6.82 |
| TATATATGGGTAACCTTTTTTTTTTTTTTTCGAACA [CACACA_negctrl_site1303] | 6.8 |
| AAATAACAAATTTTTAAAATGTATATATATATATAT [TGCATGCA_negctrl_site219] | 9.11 |
| ATTCATAATTTATTATGTACATATATATAATATATT [XGTACX_site1711] | 6.93 |
| TAAAACCTTTAAAATACATGCAGCATATATAAGTAA [TGCATGCA_site181] | 6.69 |
| AAGGATATAACATACACACACACACCCATATATATA [CACACA_site4142] | 7.85 |
| TGCAATTTAATATGAGTGCATATATTGAGAAAATAC | 8.9 |
| AAAGAAATTATTTGTTGTACATATGTTATTTTTTTT [XGTACX_site7570] | 6.93 |
